Data: PubChem BioAssay AID624418 (National Center for Advancing Translational Sciences (NCATS), 2012)
About 530 (0.13%) of roughly 410,000 compounds were called active. The inconclusive results got no clear call from the source; some entries with a clear call stand among them for comparison. Calls follow the shape of the dose curve; as a rule, active = well fitted inhibition curve with a large enough effect; inconclusive = small, poorly fitted or top-dose-only effect, or another doubt; inactive = no such curve, though single readings can be large or run the other way. A potency beside an inconclusive call is a rough fit, not a confirmed value.

Experiment: qHTS of GLP-1 Receptor Inverse Agonists: Cytotox Screen
Settings: HEK293 cAMP-luciferase reporter cells, luminescence, 24 h; series mostly up to 38.3 µM
Description: The overall goal of this project was to develop a novel assay for discovering small molecule ligands for class B1 G protein-coupled receptors (GPCRs). Very few agonists (or inverse agonists) with generally weak activity for this entire group of physiologically important receptors are known to date. To establish proof-of-principle that this critical bottleneck can be overcome with a suitable screening approach, our studies focused on the class B1 receptor for glucagon-like peptide-1 (GLP-1R), a potential therapeutic target for diabetes and neurodegenerative disease.
The assay was developed using a cell-based functional readout. Toward this goal, stably transfected HEK293 cell clones were established that co-express (i) a cAMP-responsive luciferase reporter gene, and (ii) constitutively active GLP-1R that upon ligand interaction inhibit (inverse agonists) the luciferase activity. In addition, two control cell lines were developed: (i) one that express only the cAMP-responsive reporter gene to enable initial exclusion of GLP-1R independent effects of candidate probes; and (ii) one with the reported gene cloned with another constitutively active orphan receptor GPR119 to enable exclusion of GLP-1R independent inhibitor effects of candidate inverse agonists.
To that end, this assay was optimized for 1536-well format and screened against the MLSMR. Then the same collection was run in this cytotoxicity assay where inhibition was the undesired outcome.
NIH Molecular Libraries Probe Production Network [MLPCN]
NIH Chemical Genomics Center [NCGC]
PI Name: Martin Beinborn, Tufts Medical Center
Six ul of cell suspension (200 cells/uL in DMEM + 10% Nu serum + 1% pen-strep) is dispensed in a white solid 1536-well plate. The plates are incubated for 12 hours at 37 deg C at 5% CO2 followed by addition of 23 nL compounds. After 24 hr incubation at 37 deg C and 5% CO2, 3 uL of luciferase assay detection reagent is added. A luminescence read is obtained on the PerkinElmer Viewlux after 12 min incubation at room temperature.
Potency is read from the fitted curve at half-maximal effect.

| SMILES | Potency |
| --- | --- |
| CCOc1ccccc1NC(=O)Cn1c(=O)n(CCC(=O)NCc2ccc3c(c2)OCO3)c(=O)c2ccccc21 | inactive |
| Cc1ccc(NC(=O)C2CC2C)cc1S(=O)(=O)N1CCOCC1 (configuration not stated) | inconclusive: 12.6 µM [inhibitor, single point] |
| CCOC(=O)c1c(NC(=O)CCCOc2ccccc2C)sc2c1CCC(C)C2 (configuration not stated) | inactive |
| CC(C)CNC(=S)NC(=O)c1ccc(Cl)cc1Cl | inconclusive: 17.8 µM [inhibitor, single point] |
| CCOC(=O)c1c(CNCCN(CC)CC)n(C)c2cc(Br)c(OC)cc12 | inconclusive: 28.2 µM [inhibitor, single point] |
| COc1ccc(C(=O)C[n+]2cc(Br)cc3ccccc32)cc1[N+](=O)[O-] | inconclusive: 31.6 µM [inhibitor, partial curve, poor fit] |
| CCN(CC)c1ccc(/C=C(\C#N)C(N)=S)cc1 | inconclusive: 10 µM [inhibitor, partial curve] |
| CN(C)CCC(=O)N1C/C(=C/c2ccccc2)C(=O)/C(=C\c2ccccc2)C1 | inconclusive: 7.94 µM [inhibitor, partial curve, poor fit] |
| Cc1ccc2nc3c(c(Nc4ccccc4)c2c1)CCC3 | inconclusive: 12.6 µM [inhibitor, single point] |
| CCN1CCN(C(=S)NC(=O)c2cccs2)CC1 | inconclusive: 22.4 µM [inhibitor, partial curve, poor fit] |
| S=C(NCc1ccco1)Nc1ccc(Oc2ccc(Cl)cc2)cc1 | inconclusive: 20 µM [inhibitor, single point] |
| Cc1cc(NC(=O)c2cc(-c3cccc(Cl)c3)on2)n(-c2ccccc2)n1 | inconclusive: 10 µM [inhibitor, partial curve, poor fit] |
| CCCCN(C(=O)c1ccc(-c2ccc([N+](=O)[O-])cc2)o1)c1c(N)n(CCCC)c(=O)[nH]c1=O | inconclusive: 28.2 µM [inhibitor, single point] |
| O=c1cc(CN2CCN(c3ccccc3)CC2)c2cc(O)c(-c3ccccc3)cc2o1 | inactive |
| O=C(/C=C/NNC(=O)c1ccccc1)c1ccc([N+](=O)[O-])cc1 | active: 3.98 µM |
| S=C1SCN(CCc2ccccc2)CN1CCc1ccccc1 | inconclusive: 11.2 µM [inhibitor, single point] |
| Cc1ccc(CNC(=O)CCC(=O)N2CC3CCCN3c3ccccc32)cc1 (configuration not stated) | inactive |
| O=c1c2ccccc2c(-c2ccc(O)cc2)nn1-c1cccc(C(F)(F)F)c1 | inconclusive: 28.2 µM [inhibitor, single point] |
| c1ccc(OCCN2CCN(C(c3ccccc3)c3ccccc3)CC2)cc1 | inactive |
| COc1cccc(NC(=O)CN(C)C(=O)c2cccnc2Nc2cccc(C(F)(F)F)c2)c1 | inconclusive: 11.2 µM [inhibitor, partial curve, poor fit] |
| O=C(CN1CCCCC1)Nc1ccc(NC(=O)c2ccccc2Cl)cc1Cl | inconclusive: 12.6 µM [inhibitor, partial curve] |

| SMILES | Potency |
| --- | --- |
| O=C(NCCCN1CCN(c2cccc(Cl)c2)CC1)c1cnn(-c2ccc(F)cc2)c1-n1cccc1 | inconclusive: 28.2 µM [inhibitor, single point] |
| O=S(=O)(Nc1cc(Sc2cccc3cccnc23)c(O)c2ccccc12)c1ccc(F)cc1 | inconclusive: 0.501 µM [inhibitor, full curve, poor fit] |
| N#Cc1c(-c2ccccc2)nc(SCc2cccc(C(F)(F)F)c2)[nH]c1=O | inconclusive: 11.2 µM [inhibitor, single point] |
| CCN1C(=O)c2ccccc2Sc2ccc(NC(=O)Nc3cccc([N+](=O)[O-])c3C)cc21 | inactive |
| COc1ccc(/C=C2\SC(N)=NC2=O)cc1Br | inconclusive: 11.2 µM [inhibitor, single point] |
| COc1ccc(-c2nc(N)nc(C)c2Oc2ccccc2Br)c(O)c1 | inconclusive: 14.1 µM [inhibitor, partial curve, poor fit] |
| CCc1ccccc1NC(=O)Cn1c(=O)ccc2cc(S(=O)(=O)N3CCCC3)ccc21 | inactive |
| C=C(C)C1Cc2c(C)nn(-c3cccc4cccnc34)c2C1 (configuration not stated) | inconclusive: 12.6 µM [inhibitor, single point] |
| COc1ccc2sc(N(CCCN(C)C)C(=O)c3ccc(S(=O)(=O)N4CCCc5ccccc54)cc3)nc2c1 | inconclusive: 28.2 µM [inhibitor, single point] |
| Cn1cc([C@@H]2C[C@H]3CN(Cc4cccc(Cl)c4)C(=O)[C@]34CCCN24)c(-c2ccccc2)n1 | inconclusive: 12.6 µM [inhibitor, single point] |
| O=C(Nc1ccc(Cl)cc1)c1cc2c(cc1O)[nH]c1ccccc12 | inconclusive: 28.2 µM [inhibitor, single point] |
| O=C(CN1CCN(c2ncccn2)CC1)N1CCc2ccccc21 | inactive |
| O=C1c2cccc3cc(Br)cc(c23)C(=O)N1Nc1ccc(Br)cc1 | inactive |
| CCCCOc1ccc(Br)cc1/C(C)=N/NC1=NCCN1 | active: 4.47 µM |
| Clc1ccc(-c2nc(Cc3ccccc3)no2)cc1 | inactive |
| C/C(CCc1ccccc1)=N\NC(=S)NCCc1ccccc1 | inconclusive: 3.98 µM [inhibitor, full curve, poor fit] |
| Cc1sc2nc(SCC(=O)N3CCN(CCO)CC3)n(-c3ccccc3)c(=O)c2c1C | inconclusive: 0.316 µM [inhibitor, full curve, poor fit] |
| Cc1ccc(-c2cnn(-c3cccc([N+](=O)[O-])c3)c2N)cc1 | inactive |
| CCOc1ccc(-n2nc3ccc(NC(=O)Cc4ccccc4)cc3n2)cc1 | inconclusive: 15.8 µM [inhibitor, single point] |
| COc1ccc(NC(=O)C(=O)c2cn(CC(=O)N3CCCC3)c3ccccc23)cc1 | inconclusive: 0.398 µM [inhibitor, full curve, poor fit] |
| COc1cc(CCNC2=CC(=O)c3ncccc3C2=O)ccc1O | inconclusive: 12.6 µM [inhibitor, partial curve, poor fit] |
